# Data: PubChem BioAssay AID504832 (National Center for Advancing Translational Sciences (NCATS), 2011)
# Where “and” joins values, the source holds several entries; their conditions need not be identical. Equal values may be shown once. Hit rate of the full screen: of about 310,000 compounds, about 18,000 (5.8%) were called active. Inconclusive means that the source gave no clear call. Such entries were picked first, then a sample of the others. Calls come from the whole dose curve; as a rule, active = well fitted inhibition curve with a large enough effect; inconclusive = small, poorly fitted or top-dose-only effect, or another doubt; inactive = no such curve, though single readings can be large or run the other way. Potencies beside an inconclusive call are fits to weak or partial responses and may not hold up.
# Experiment: Primary qHTS for delayed death inhibitors of the malarial parasite plastid, 48 hour incubation
# Details: P. falciparum luciferase growth in erythrocytes; series mostly up to 28.7 µM
# In short: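 Firefly luciferase activity from engineered P. falciparum reports growth; inhibitors lower the luminescent signal. Cultures contained 2% hematocrit erythrocytes at 0.1% final parasitemia.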
# Potency is the fitted concentration of half-maximal effect; tags give direction and shape of the fitted curve.
row,SMILES,Potency
1,O=C(CSc1oc(-c2cccs2)nc1S(=O)(=O)c1ccccc1)NC1CCCCC1,"inconclusive: 18.5 µM [inhibitor, single point]"
2,CC(C)(C)Nc1nc2ccc([N+](=O)[O-])cc2o1,inactive
3,CCCCCC(=O)Nc1cccc(C2=NOC3(C2)C[C@H](C(N)=O)N(C(=O)c2ccccc2)C3)c1 (some centres undefined),"inconclusive: 10.4 µM [inhibitor, single point]"
4,O=c1c2ccccc2nnn1CCN1CCOCC1,inactive
5,O=C(CSc1ccc([N+](=O)[O-])cn1)Nc1ccc(N2CCOCC2)c(Cl)c1,"inconclusive: 11.7 µM [inhibitor, single point]"
6,Clc1ccc2nc(N3CCNCC3)nc(-c3ccccc3)c2c1,active: 11.7 µM
7,O=C(N/N=C/c1cc([N+](=O)[O-])ccc1N1CCCCCC1)c1ccccn1,"inconclusive: 8.28 µM [inhibitor, single point]"
8,CC(C)c1cc(CNC(=O)c2cc(COc3cncc(Cl)c3)on2)on1,"inconclusive: 13.1 µM [inhibitor, partial curve, poor fit]"
9,O=C(O)C(=O)Cc1c[nH]c2ccccc12,"inconclusive: 20.8 µM [inhibitor, partial curve, poor fit]"
10,Cc1nnc(SCCn2c(N3CCC(Cc4ccccc4)CC3)nc3c2c(=O)[nH]c(=O)n3C)s1,"inconclusive: 7.38 µM [inhibitor, partial curve]"
11,CN1CCN(c2ccc(S(=O)(=O)N3CCCCC3)cc2NC(=O)c2ccc(C#N)cc2)CC1,"inconclusive: 18.5 µM [inhibitor, single point]"
12,N=C1/C(=C\c2coc3ccccc3c2=O)C(=O)N=C2SC(c3ccncc3)=NN12,"inconclusive: 13.1 µM [inhibitor, partial curve, poor fit]"
13,CCC(=O)N1N=C2CC(C)(C)OCC2C1c1ccccc1 (centres undefined),inactive
14,COc1ccc(N=CC2=C(O)c3ccccc3C2=O)c(OC)c1,inactive
15,COC(=O)c1sccc1NC(=O)c1cc2c(s1)CCCC2,inactive
16,COc1ccc(/C=C/C(=O)Nc2sc3c(c2C(=O)NCc2cccnc2)CCCC3)cc1,"inconclusive: 5.22 µM [inhibitor, partial curve, poor fit]"
17,CCOc1ccc(NC(=S)N(Cc2ccc(Cl)cc2)Cc2ccco2)cc1,"inconclusive: 6.57 µM [inhibitor, partial curve, poor fit]"
18,Cc1cc(C)c(N=C2CCCN2Cc2ccccc2)c(C#N)c1,"inconclusive: 10.4 µM [inhibitor, partial curve]"
19,COc1ccccc1CNC(=O)C(=O)NCC1OCCCN1S(=O)(=O)c1ccc(F)cc1C (centres undefined),inactive
20,Fc1ccc(Nc2nc(NCc3ccco3)c3ccccc3n2)cc1,active: 0.37 µM
21,Cc1c(O)ccc(C(=O)COc2ccc(F)cc2)c1O,inactive
22,Cc1ccc(C)c(OCC(=O)N2CCN(c3ncccn3)CC2)c1,"inconclusive: 18.5 µM [inhibitor, single point]"
23,Cc1cc(-c2csc(NC(=O)c3ccc(=O)[nH]c3)n2)c(C)n1Cc1ccccc1,inactive

row,SMILES,Potency
1,O=C(Nc1ccc(N2CCOCC2)cc1)c1cc2c(s1)CCCCC2,"inconclusive: 18.5 µM [inhibitor, partial curve, poor fit]"
2,Cc1ccc(C(=O)N2CCC3(CC2)NCCc2[nH]cnc23)cc1C,inactive
3,COC(=O)C1=C(c2ccc(Cl)c(C(F)(F)F)c2)C[C@@H]2CC[C@H]1N2C(=O)NCc1ccc2c(c1)OCO2,"inconclusive: 1.85 µM [inhibitor, full curve, poor fit]"
4,Cc1nn(Cc2ccccc2)c(C)c1C(=O)N1CCN(CC(=O)Nc2ccc(F)cc2)CC1,"inconclusive: 18.5 µM [inhibitor, single point]"
5,CCOC(=O)c1ccc(NC(=O)CC2SC3=NCCN3C2=O)cc1 (centres undefined),inactive
6,CCOCCCNC(=O)c1ccc(N2CC3CC(C2)c2cccc(=O)n2C3)c(NC(=O)Nc2cccc(OC)c2)c1 (centres undefined),"inconclusive: 9.28 µM [inhibitor, partial curve, poor fit]"
7,CNS(=O)(=O)c1ccc(CCC(=O)N2CCN(c3ccccc3OC)CC2)cc1,"inconclusive: 7.38 µM [inhibitor, partial curve, poor fit]"
8,CC(n1cnnn1)C12CC3CC(CC(C3)C1)C2 (centres undefined),"inconclusive: 11.7 µM [inhibitor, single point]"
9,O=C(Nc1cccc(S(=O)(=O)N2CCOCC2)c1)[C@@H]1CCCN1S(=O)(=O)c1ccc(Cl)cc1,"inconclusive: 10.4 µM [inhibitor, partial curve]"
10,CSc1nsc(SC)c1C(=O)N1CCN(S(=O)(=O)c2ccc(C)cc2)C1C(C)C (centres undefined),"inconclusive: 13.1 µM [inhibitor, single point]"
11,CCOc1ccc(CCNC(=O)Cc2nn[nH]n2)cc1OCC,inactive
12,COc1ccc(Br)cc1CN1CCN(CCO)CC1,inactive
13,CCOC(=O)c1oc2nc(C(C)C)c3c(c2c1N)CCC3,"inconclusive: 18.5 µM [inhibitor, single point]"
14,Cc1cccc(N2CCN(C(=O)c3cccc(S(=O)(=O)N4CCc5ccccc5C4)c3)CC2C)c1 (centres undefined),"inconclusive: 13.1 µM [inhibitor, partial curve]"
15,COc1cccc(C(C(=O)NC2CCCC2)N(C(=O)c2ccco2)c2ccc(NC(C)=O)cc2)c1OC (centres undefined),active: 1.04 µM
16,CN(Cc1ccccc1)C(=O)c1nc2ccccn2c1CN1CCc2sccc2C1,"inconclusive: 9.28 µM [inhibitor, partial curve, poor fit]"
17,Cn1c(O)c(C(c2ccccn2)c2c(O)n(C)c(=S)[nH]c2=O)c(=O)[nH]c1=S,inactive
18,CCC(Cc1ccccc1)n1c(=S)[nH]c2ccccc2c1=O (centres undefined),"inconclusive: 18.5 µM [inhibitor, single point]"
19,COC(C)(C)CCCC(C)C/C=C/C(C)=C/C(=O)OC(C)C (centres undefined),"inactive and inconclusive: 19 µM [inhibitor, single point]"
20,CN(C(=O)c1ccc(NC(=O)Cc2cccc(NC(=O)C3CCCN(C(=O)C4CCCCC4)C3)c2)cc1)C1CCCC1 (centres undefined),"inconclusive: 11.7 µM [inhibitor, single point]"
21,CC(C)(C)c1cc(C(=O)NNc2cc(C(F)(F)F)ccc2Cl)n(Cc2ccccc2)n1,active: 13.1 µM
22,C[C@H](NC(=O)c1ccc(Cl)cc1)C(=O)NCCc1ccc(S(N)(=O)=O)cc1,inactive
23,NCCCC[C@H]1CNC(=S)N1CCc1cc(C(F)(F)F)cc(C(F)(F)F)c1,"inconclusive: 3.7 µM [inhibitor, partial curve, poor fit]"

row,SMILES,Potency
1,CCOC(=O)C1=C(C)NC(=O)NC1c1ccc([N+](=O)[O-])o1 (centres undefined),inactive
2,Cc1ccccc1NC(=O)c1ccc(C)c(S(=O)(=O)Nc2cccnc2)c1,inactive
3,COc1ccc(C)cc1NC(=O)NC(C)c1ccc2c(c1)OCO2 (centres undefined),"inconclusive: 18.5 µM [inhibitor, single point]"
4,NNC(=O)CCc1nc2ccccc2[nH]1,"inconclusive: 0.415 µM [inhibitor, full curve, poor fit]"
5,CCCC(=O)c1cc(-c2nc3ccccc3n2C)n(C)c1,inactive
6,COc1ccc2nc(NCCNC(=S)NCCCN3CCOCC3)c(C#N)cc2c1,"inconclusive: 16.5 µM [inhibitor, single point]"
7,O=C(NC(Cc1ccc2c(c1)OCO2)C(=O)N1CCCC1C(=O)O)c1ccccc1 (centres undefined),inactive
8,Cc1ccccc1C(=O)NC1CCN(CC(=O)NCc2cccs2)CC1,inactive
9,COc1cc(NC(=O)c2cc3c(Cl)nc4ccccc4c3s2)cc(OC)c1OC,active: 0.828 µM
10,CCN(CC)C(=O)Cn1c(C)c(/C=C/c2cc[n+](C)cc2)c2ccccc21,active: 1.65 µM
11,c1nc(N2CCOCC2)c2c3c(sc2n1)CCCC3,"inconclusive: 18.5 µM [inhibitor, single point]"
12,CC(/C=N/NC(=O)c1ccc(Cn2cc([N+](=O)[O-])cn2)o1)=C\c1ccccc1,inactive
13,CC(C)n1cc(CN2CCC(C(=O)Nc3ccc(Oc4ccccc4F)cc3)CC2)cn1,"inconclusive: 2.94 µM [inhibitor, full curve]"
14,COc1cc(NC(=O)c2ccccc2)c(OC)cc1NC(=O)CN1C(=O)NC2(CCCCC2C)C1=O (centres undefined),"inconclusive: 10.4 µM [inhibitor, partial curve]"
15,O=Cc1c[nH]c2cccc(OCc3ccccc3)c12,"inconclusive: 14.7 µM [inhibitor, partial curve, poor fit]"
16,COc1ccc(CC(=O)N2CC(=O)N(CCc3ccccc3)C(=O)C2)cc1,inactive
17,Cc1c(N(C)S(=O)(=O)c2cc(C(=O)N3CCCC3)ccc2Cl)c(=O)n(-c2ccccc2)n1C,active: 13.1 µM
18,O=C(Nc1ccc(S(=O)(=O)N2CCCC2)cc1)c1ccc(Cl)nc1,"inconclusive: 7.38 µM [inhibitor, partial curve, poor fit]"
19,CC(C)N(C(=O)CSc1nnc(-c2cc3ccccc3cc2O)n1Cc1ccco1)C(C)C,active: 2.08 µM
20,COc1ccc(Cc2nnc(SCC(=O)c3ccc4c(c3)NC(=O)CO4)o2)cc1,"inconclusive: 11.7 µM [inhibitor, single point]"
21,COc1ccc(-c2nnn(CC(=O)N(Cc3ccccc3Cl)C(C(=O)NCC3CCCO3)c3ccco3)n2)cc1OC (centres undefined),active: 9.28 µM
22,CCC(C)(Oc1ccc(C2(c3ccc(OC(C)(CC)C(=O)O)cc3)CCCCC2)cc1)C(=O)O (centres undefined),inactive
23,Cc1ccc(C)c(S(=O)(=O)N2CCN(C(=O)c3ccccc3Cc3ccccc3)CC2)c1,active: 11.7 µM
